Laboratory results reported in PubChem BioAssay AID2675 (National Center for Advancing Translational Sciences (NCATS), 2010).
Out of some 280,000 compounds screened, about 100 (0.036%) were called active. The shares of active, inactive and inconclusive entries below differ from those in the screen. Calls follow the shape of the dose curve; as a rule, active = well fitted inhibition curve with a large enough effect in the signal ratio, with a control signal flat (not every such curve was filed as active); inconclusive = small, poorly fitted or top-dose-only effect, or effect the other way, or a change in a side signal; inactive = no such curve, though single readings can be large or run the other way; the % refers to the signal ratio. A potency beside an inconclusive call is a rough fit, not a confirmed value. A note “side channel” means that the fit belongs to a control or component signal, not to the main read-out.

biological target: Muscleblind-like protein 1 (Homo sapiens) (UniProt Q9NR56); test: qHTS Assay for Inhibitors of MBNL1-poly(CUG) RNA binding; conditions: TR-FRET MBNL1-His/biotin-(CUG)12 binding, 665/545 ratio; activity change, negative = inhibition: at 57.5 µM (top of the series)
UniProt Q9NR56, sequence (Q9NR56 whole entry, looked up): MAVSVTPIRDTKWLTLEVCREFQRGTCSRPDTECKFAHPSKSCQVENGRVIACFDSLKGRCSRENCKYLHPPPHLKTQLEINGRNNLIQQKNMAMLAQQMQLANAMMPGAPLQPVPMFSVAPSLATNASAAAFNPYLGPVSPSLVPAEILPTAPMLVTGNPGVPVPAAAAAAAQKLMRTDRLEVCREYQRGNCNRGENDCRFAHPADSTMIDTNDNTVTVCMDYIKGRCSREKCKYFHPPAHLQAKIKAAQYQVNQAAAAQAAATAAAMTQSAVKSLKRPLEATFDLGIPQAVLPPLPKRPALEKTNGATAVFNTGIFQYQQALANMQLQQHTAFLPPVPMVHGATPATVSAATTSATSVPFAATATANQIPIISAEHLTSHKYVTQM
In short: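 Compounds (final 92 nM to 58 uM) are added to His-tagged MBNL1 and biotin-(CUG)12, then terbium anti-His antibody and streptavidin-XL665 (5 nM final). After 60 min at room temperature, the 665/545 nm ratio is read.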
% is scaled to controls: 0 for no effect and ±100 for the full control effect; potency is read from the fitted curve at half-maximal effect; tags tell the direction and shape of the fitted curve or compound fluorescence and quenching.

| Compound | Potency | activity change, negative = inhibition |
| --- | --- | --- |
| O=c1c2ccccc2nc(/C=C/c2cccc(Br)c2)n1CCCO | inconclusive: 17.8 µM [quencher, side channel, partial curve] | – |
| Cc1ccc(C)c(OCc2cc(C(=O)NC3CCN(Cc4ccccc4)CC3)no2)c1 | – | inactive: 7.36% |
| COc1ccc(N/C(=C(/C(Cl)=C(Cl)Cl)[N+](=O)[O-])n2nnc3ccccc32)cc1OC | inconclusive: 12.6 µM [quencher, side channel, partial curve] | – |
| CCCN1CCN(CCCNC(=S)Nc2ccc(F)cc2)CC1 | inconclusive: 251 µM [inhibitor, single point] | – |
| CC(C)C[C@H](NC(=O)c1[nH]cnc1C(=O)Nc1ccccc1)C(=O)OC(C)(C)C | – | inactive: -3.86% |
| COc1cc(C2C(C(=O)/C=C/c3ccccc3)=C(O)C(=O)N2c2ccccn2)ccc1O (stereo unspecified) | inconclusive: 15.8 µM [quencher, side channel, partial curve] | – |
| c1csc(-c2cn3ccc4ccccc4c3n2)c1 | inconclusive: 2.51 µM [quencher, side channel, full curve] | – |
| NS(=O)(=O)c1ccc(CCNC(=O)/C=C/c2ccccc2[N+](=O)[O-])cc1 | inconclusive: 14.1 µM [quencher, partial curve] | – |
| CCN(CC)C(=O)c1cc2cc([N+](=O)[O-])ccc2s1 | inconclusive: 12.6 µM [quencher, side channel, partial curve] | – |
| CN(CC(=O)NCCc1ccccc1)Cc1ccco1 | – | inactive: -7.86% |
| CCOc1ccc(N2C(=O)CC(N(C)Cc3ccccc3)C2=O)cc1 (stereo unspecified) | – | inactive: -26.8% |
| CC(C)(C)c1ccc(C(=O)Nc2ccc(Cl)cc2)cc1 | – | inconclusive: -11.9% [phenotype inactive] |
| COc1ccc(-c2ccc(C3C(C#N)=C(N)Oc4n[nH]c(C)c43)o2)cc1 (stereo unspecified) | inconclusive: 25.1 µM [quencher, side channel, single point] | – |
| O=C(N/N=C/C=C/c1ccccc1)c1ccccc1Br | inconclusive: 25.1 µM [quencher, side channel, partial curve] | – |
| O=[N+]([O-])c1c(NCCCO)cc(SCc2ccco2)c2nonc12 | inconclusive: 1.12 µM [quencher, side channel, partial curve] | – |
| COc1ccc(-c2cc(C3CC3)nc3sc(C#N)c(N)c23)cc1 | inconclusive: 31.6 µM [quencher, side channel, single point] | – |
| CCOc1ccc(NC(=O)Nc2cccnc2)cc1 | inconclusive: 158 µM [inhibitor, partial curve] | – |
| Cc1cc2c(c(=O)n1-c1ccccc1)C1O[C@](c3ccsc3)(Cc3cc(C#N)ccc31)O2 | – | inactive: 10.4% [at 11.5 µM] |
| COc1ccc(-c2nc(NC(=O)c3[nH]c(C)c(C(C)=O)c3C)sc2C)cc1 | – | inactive: 4.29% |
| O=C1c2ccccc2C(=O)N1c1cccc(-c2csc(Nc3ccc4c(c3)OCO4)n2)c1 | inconclusive: 0.1 µM [fluorescent, side channel, partial curve, poor fit] | – |
| O=C(NCc1ccc(F)cc1)C1CCCN(S(=O)(=O)c2cccc3nsnc23)C1 (stereo unspecified) | inconclusive: 10 µM [quencher, side channel, partial curve] | – |

| Compound | Potency | activity change, negative = inhibition |
| --- | --- | --- |
| N#CC(c1nc2ccccc2nc1N1CCCC1)S(=O)(=O)c1cccs1 (stereo unspecified) | inconclusive: 22.4 µM [quencher, side channel, single point] | – |
| O=C(Nc1ccc(OCC(=O)N2CCOCC2)cc1)c1ccccc1Cl | – | inactive: 4.05% |
| O=[N+]([O-])c1ccc(CNC2CCCc3ccccc32)cc1 (stereo unspecified) | inconclusive: 11.2 µM [quencher, side channel, partial curve] | – |
| CCN1CCN(Cc2ccc(NC(=O)c3ccc(C)c(NC(=O)c4cc(-c5ccc(Br)cc5)n[nH]4)c3)cc2C(F)(F)F)CC1 | – | inactive: 1.22% |
| C=CCn1c(N)c(C(=O)NCc2ccco2)sc1=S | inconclusive: 25.1 µM [quencher, side channel, single point] | – |
| CCCCC(=O)Nc1ccc(F)c(Cl)c1 | inconclusive: 3.16 µM [quencher, side channel, partial curve] | – |
| CC(C)(C)c1ccc(OC(=O)Cn2c(C(F)(F)F)nc3ccccc32)cc1 | inconclusive: 126 µM [inhibitor, single point] | – |
| COc1ccc(-n2nc(C(=O)NCC(=O)NCCCN3CCN(C)CC3)c3ccccc3c2=O)cc1 | inconclusive: 25.1 µM [quencher, side channel, partial curve] | – |
| Cc1cc(N/N=C/c2ccncc2)nc2ccccc12 | inconclusive: 20 µM [quencher, side channel, partial curve] | – |
| COCCCNC(=O)CC(C)c1ccccc1 (stereo unspecified) | inconclusive: 39.8 µM [quencher, side channel, single point] | – |
| O=C(O)c1ccccc1SSc1ccccc1C(=O)O | – | inactive: 1.36% |
| COc1cc2c(cc1OC)CN(C(=O)/C=C/c1cc(OC)c(OC)c(OC)c1)CC2 | inconclusive: 14.1 µM [quencher, side channel, partial curve] | – |
| CC(C)(C)n1nc2c(c1NC(=O)c1cc([N+](=O)[O-])ccc1Cl)CS(=O)(=O)C2 | inconclusive: 7.94 µM [quencher, side channel, partial curve] | – |
| COc1ccc(S(=O)(=O)N2CCN(C3CCCC(C)C3)CC2)cc1 (stereo unspecified) | – | inactive: -5.86% |
| CCc1ccc2[nH]c(=O)c(C(c3nnnn3CCOC)N3CCN(c4ccccc4F)CC3)cc2c1 (stereo unspecified) | inconclusive: 31.6 µM [quencher, side channel, single point] | – |
| Cc1noc(NS(=O)(=O)c2ccc(N/C=C/C(=O)c3ccc4c(c3)OCO4)cc2)c1C | inconclusive: 20 µM [quencher, side channel, partial curve] | – |
| CCc1ccc2[nH]c(=O)c(C(c3nnnn3CC3CCCO3)N3CCN4CCCC4C3)cc2c1 (stereo unspecified) | inconclusive: 39.8 µM [quencher, side channel, single point] | – |
| CCOc1ccc(OCC(=O)Nc2ccc(OC)cc2)cc1 | inconclusive: 0.794 µM [fluorescent, side channel, single point] | – |
| O=C(O)c1cc(N=Nc2c(O)[nH]c3ccc([N+](=O)[O-])cc23)ccc1Cl | inconclusive: 3.16 µM [quencher, side channel, partial curve] | – |
| O=C(CSc1cnc2ccccc2n1)c1ccc(F)cc1 | inconclusive: 0.794 µM [quencher, side channel, partial curve, poor fit] | – |
| CCOCCCNC(=S)N1CCCN(c2nc3cc(C)c(C)cc3cc2C#N)CC1 | inconclusive: 17.8 µM [quencher, side channel, single point] | – |

| Compound | Potency | activity change, negative = inhibition |
| --- | --- | --- |
| Cc1ccc(-c2nnc(SCC(=O)N3CCOCC3)nc2-c2ccc(C)cc2)cc1 | inconclusive: 12.6 µM [quencher, side channel, partial curve] | – |
| COc1ccc(-c2cn3cccnc3n2)cc1NC(=O)c1ccc(Br)o1 | inconclusive: 17.8 µM [quencher, side channel, partial curve] | – |
| O=C(NNS(=O)(=O)c1ccc(F)cc1)c1ccccc1 | – | inactive: -5.33% |
| Cc1c(CCO)c(=O)n(-c2ccccc2)n1S(=O)(=O)c1ccc([N+](=O)[O-])cc1 | inconclusive: 25.1 µM [quencher, side channel, partial curve] | – |
| Oc1cccc(/C=N/Nc2cccc3cccnc23)c1 | inconclusive: 25.1 µM [quencher, side channel, partial curve] | – |
| CS(=O)(=O)Nc1ccc(C2=NN(S(C)(=O)=O)C(c3ccc4nccnc4c3)C2)cc1 (stereo unspecified) | – | inactive: 3.59% |
| Cc1onc(C(=O)Nc2c(C)n(C)n(-c3ccccc3)c2=O)c1[N+](=O)[O-] | inconclusive: 15.8 µM [quencher, side channel, partial curve] | – |
| O=c1c2ccccc2nc(N/N=C/c2ccc(O)cc2)n1O | – | inactive: -11.5% |
| COc1ccc(NC(=O)CN2CCc3ccccc3C2)c(OC)c1 | – | inactive: 1.82% |
| COC1=C(N2CCOCC2)C(=O)c2ccccc2C1=O | inconclusive: 17.8 µM [quencher, side channel, partial curve] | – |
| O=C(NC(Cc1ccc(F)cc1)C(=O)O)c1ccccc1 (stereo unspecified) | – | inactive: -6.5% |
| CN(Cc1ccccc1)C(=O)CCS(=O)(=O)c1ccc2c(c1)n(C)c(=O)c(=O)n2C | inconclusive: 8.91 µM [quencher, side channel, partial curve, poor fit] | – |
| NS(=O)(=O)c1ccc(NC(=O)Nc2ccc(S(N)(=O)=O)cc2)cc1 | – | inactive: -3.48% |
| O=C(C1CCN(S(=O)(=O)c2cccc3nsnc23)CC1)N1CCc2ccccc2C1 | inconclusive: 6.31 µM [quencher, side channel, partial curve] | – |
| COc1ccccc1C(=O)OCC(=O)c1cccc([N+](=O)[O-])c1 | inconclusive: 7.08 µM [quencher, side channel, partial curve] | – |
| CCOC(=O)N1CCN(C(=O)/C=C/c2ccc([N+](=O)[O-])cc2)CC1 | inconclusive: 6.31 µM [quencher, side channel, partial curve] | – |
| COc1ccc(/C=C/C(=O)N2CCOCC2)cc1OC | – | inactive: 10.9% |
| COc1cc2[nH]c(Cl)c([N+](=O)[O-])c2cc1OC | inconclusive: 7.94 µM [quencher, full curve] | – |
| Cc1csc(Sc2ccc([N+](=O)[O-])cc2C(=O)OCC(=O)NC2CCCC(C)C2C)n1 (stereo unspecified) | inconclusive: 14.1 µM [quencher, side channel, partial curve] | – |
